Measured values: publication PMC9911399, “Two distinct binding modes provide the RNA-binding protein RbFox with extraordinary sequence specificity”
Positions count from the first letter of the chain named. The list shows a part of the results.

T1: RBFOX1 RRM (Homo sapiens, UniProt Q9NWB1 109-208)
T1 sequence: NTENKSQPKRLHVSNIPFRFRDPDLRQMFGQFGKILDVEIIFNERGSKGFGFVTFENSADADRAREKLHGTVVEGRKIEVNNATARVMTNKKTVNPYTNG

B1: GGUACUG (DNA:RNA)
RNA: GGGAGACCGGAAUUCAGAUUGUCCGGUACUGUUAAAUCCCGUCGUAGCCACCA
DNA 1: CAATCTGAATTCCGGTCTCCC
DNA 2: TGGTGGCTACGACGGGATT
B2: GUGCCAU (DNA:RNA)
RNA: B1 RNA with G26U, U27G, A28C, U30A, G31U
DNA 1: CAATCTGAATTCCGGTCTCCC
DNA 2: TGGTGGCTACGACGGGATT
B3: CCACGAC (DNA:RNA)
RNA: GGGAGACCGGAAUUCAGAUUGUCCCCACGACUUAAAUCCCGUCGUAGCCACCA
DNA 1: CAATCTGAATTCCGGTCTCCC
DNA 2: TGGTGGCTACGACGGGATT
B4: CCAUACC (DNA:RNA)
RNA: B3 RNA with C28U, G29A, A30C
DNA 1: CAATCTGAATTCCGGTCTCCC
DNA 2: TGGTGGCTACGACGGGATT
B5: AGUACAC (DNA:RNA)
RNA: B1 RNA with G25A, U30A, G31C
DNA 1: CAATCTGAATTCCGGTCTCCC
DNA 2: TGGTGGCTACGACGGGATT
B6: ACCCAGA (DNA:RNA)
RNA: B3 RNA with C25A, A27C, G29A, A30G, C31A
DNA 1: CAATCTGAATTCCGGTCTCCC
DNA 2: TGGTGGCTACGACGGGATT
B7: GACCGUC (DNA:RNA)
RNA: B3 RNA with C25G, C26A, A27C, A30U
DNA 1: CAATCTGAATTCCGGTCTCCC
DNA 2: TGGTGGCTACGACGGGATT
B8: GGGCCAG (DNA:RNA)
RNA: B1 RNA with U27G, A28C, U30A
DNA 1: CAATCTGAATTCCGGTCTCCC
DNA 2: TGGTGGCTACGACGGGATT
B9: ACGAUAG (DNA:RNA)
RNA: B3 RNA with C25A, A27G, C28A, G29U, C31G
DNA 1: CAATCTGAATTCCGGTCTCCC
DNA 2: TGGTGGCTACGACGGGATT
B10: AUCCCUU (DNA:RNA)
RNA: B1 RNA with G25A, G26U, U27C, A28C, G31U
DNA 1: CAATCTGAATTCCGGTCTCCC
DNA 2: TGGTGGCTACGACGGGATT
B11: CGGCUAA (DNA:RNA)
RNA: B3 RNA with C26G, A27G, G29U, C31A
DNA 1: CAATCTGAATTCCGGTCTCCC
DNA 2: TGGTGGCTACGACGGGATT
B12: CAAUUCG (DNA:RNA)
RNA: B3 RNA with C26A, C28U, G29U, A30C, C31G
DNA 1: CAATCTGAATTCCGGTCTCCC
DNA 2: TGGTGGCTACGACGGGATT
B13: AAAUCGA (DNA:RNA)
RNA: B3 RNA with C25A, C26A, C28U, G29C, A30G, C31A
DNA 1: CAATCTGAATTCCGGTCTCCC
DNA 2: TGGTGGCTACGACGGGATT
B14: GUGUGGC (DNA:RNA)
RNA: B3 RNA with C25G, C26U, A27G, C28U, A30G
DNA 1: CAATCTGAATTCCGGTCTCCC
DNA 2: TGGTGGCTACGACGGGATT
B15: AGAGGUA (DNA:RNA)
RNA: B3 RNA with C25A, C26G, C28G, A30U, C31A
DNA 1: CAATCTGAATTCCGGTCTCCC
DNA 2: TGGTGGCTACGACGGGATT
B16: AAAGGCA (DNA:RNA)
RNA: B3 RNA with C25A, C26A, C28G, A30C, C31A
DNA 1: CAATCTGAATTCCGGTCTCCC
DNA 2: TGGTGGCTACGACGGGATT
B17: GUACAGC (DNA:RNA)
RNA: B3 RNA with C25G, C26U, G29A, A30G
DNA 1: CAATCTGAATTCCGGTCTCCC
DNA 2: TGGTGGCTACGACGGGATT
B18: UCAGGUA (DNA:RNA)
RNA: B3 RNA with C25U, C28G, A30U, C31A
DNA 1: CAATCTGAATTCCGGTCTCCC
DNA 2: TGGTGGCTACGACGGGATT
B19: GGGGGAA (DNA:RNA)
RNA: B3 RNA with C25G, C26G, A27G, C28G, C31A
DNA 1: CAATCTGAATTCCGGTCTCCC
DNA 2: TGGTGGCTACGACGGGATT
B20: UAGCUUC (DNA:RNA)
RNA: B3 RNA with C25U, C26A, A27G, G29U, A30U
DNA 1: CAATCTGAATTCCGGTCTCCC
DNA 2: TGGTGGCTACGACGGGATT
B21: UUUACAC (DNA:RNA)
RNA: B1 RNA with G25U, G26U, U30A, G31C
DNA 1: CAATCTGAATTCCGGTCTCCC
DNA 2: TGGTGGCTACGACGGGATT
B22: GACCGUU (DNA:RNA)
RNA: B3 RNA with C25G, C26A, A27C, A30U, C31U
DNA 1: CAATCTGAATTCCGGTCTCCC
DNA 2: TGGTGGCTACGACGGGATT
B23: GCUUUCC (DNA:RNA)
RNA: B3 RNA with C25G, A27U, C28U, G29U, A30C
DNA 1: CAATCTGAATTCCGGTCTCCC
DNA 2: TGGTGGCTACGACGGGATT
B24: CGGAAAG (DNA:RNA)
RNA: B1 RNA with G25C, U27G, C29A, U30A
DNA 1: CAATCTGAATTCCGGTCTCCC
DNA 2: TGGTGGCTACGACGGGATT
B25: UUGUAUU (DNA:RNA)
RNA: B1 RNA with G25U, G26U, U27G, A28U, C29A, G31U
DNA 1: CAATCTGAATTCCGGTCTCCC
DNA 2: TGGTGGCTACGACGGGATT
B26: UUGAAAA (DNA:RNA)
RNA: B3 RNA with C25U, C26U, A27G, C28A, G29A, C31A
DNA 1: CAATCTGAATTCCGGTCTCCC
DNA 2: TGGTGGCTACGACGGGATT
B27: AGCAAUC (DNA:RNA)
RNA: B1 RNA with G25A, U27C, C29A, G31C
DNA 1: CAATCTGAATTCCGGTCTCCC
DNA 2: TGGTGGCTACGACGGGATT
B28: UAUUAUC (DNA:RNA)
RNA: B1 RNA with G25U, G26A, A28U, C29A, G31C
DNA 1: CAATCTGAATTCCGGTCTCCC
DNA 2: TGGTGGCTACGACGGGATT
B29: UCGGAGC (DNA:RNA)
RNA: B3 RNA with C25U, A27G, C28G, G29A, A30G
DNA 1: CAATCTGAATTCCGGTCTCCC
DNA 2: TGGTGGCTACGACGGGATT
B30: ACACUCU (DNA:RNA)
RNA: B3 RNA with C25A, G29U, A30C, C31U
DNA 1: CAATCTGAATTCCGGTCTCCC
DNA 2: TGGTGGCTACGACGGGATT
B31: UCACUAG (DNA:RNA)
RNA: B3 RNA with C25U, G29U, C31G
DNA 1: CAATCTGAATTCCGGTCTCCC
DNA 2: TGGTGGCTACGACGGGATT

Target: T1, RBFOX1 RRM
Experiment: EMSA; HiTS-Eq, 1 nM pool, 10 min; buffer printed only for the single-RNA assays: 10 mM Tris pH 7.5, 150 mM NaCl, 3.4 mM EDTA, 0.001% NP-40, 30 C
Details: tags: His6 N-terminal (pET28a); label: 5' 32P
Summary of the method: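 Purified wild-type or mutant RbFox RRM at increasing concentrations was equilibrated with 1 nM of 5′-radiolabelled RNA carrying 7 randomized nucleotides for 10 min in 50 µL. Unbound RNA was separated by 8% native PAGE and sequenced. Relative association constants came from read-count changes of each RNA species compared with the control reaction, normalised to the cognate motif.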

Binder | binding signal
B1 | 0.011 KA relative to UGCAUGU
B2 | 0.0111 KA relative to UGCAUGU
B3 | 0.00242 KA relative to UGCAUGU
B4 | 0.00116 KA relative to UGCAUGU
B5 | 0.00536 KA relative to UGCAUGU
B6 | 0.00381 KA relative to UGCAUGU
B7 | 0.0131 KA relative to UGCAUGU
B8 | 0.0199 KA relative to UGCAUGU
B9 | 0.0135 KA relative to UGCAUGU
B10 | 0.00521 KA relative to UGCAUGU
B11 | 0.00822 KA relative to UGCAUGU
B12 | 0.00943 KA relative to UGCAUGU
B13 | 0.00235 KA relative to UGCAUGU
B14 | 0.00821 KA relative to UGCAUGU
B15 | 0.00817 KA relative to UGCAUGU
B16 | 0.00733 KA relative to UGCAUGU

Binder | binding signal
B17 | 0.00791 KA relative to UGCAUGU
B18 | 0.0111 KA relative to UGCAUGU
B19 | 0.022 KA relative to UGCAUGU
B20 | 0.012 KA relative to UGCAUGU
B21 | 0.000916 KA relative to UGCAUGU
B22 | 0.0123 KA relative to UGCAUGU
B23 | 0.0202 KA relative to UGCAUGU
B24 | 0.0218 KA relative to UGCAUGU
B25 | 0.00921 KA relative to UGCAUGU
B26 | 0.00876 KA relative to UGCAUGU
B27 | 0.00921 KA relative to UGCAUGU
B28 | 0.00535 KA relative to UGCAUGU
B29 | 0.00541 KA relative to UGCAUGU
B30 | 0.000285 KA relative to UGCAUGU
B31 | 0.0053 KA relative to UGCAUGU
